Measured values published in PubChem BioAssay AID485344 (National Center for Advancing Translational Sciences (NCATS), 2010).
Hit rate of the full screen: of about 340,000 compounds, about 6,900 (2%) were called active. Rule as the data show it: active = inhibition above about 30%; inactive = below that, where a call was filed. Only a part is listed here, and it is no random draw. Entries without a call were filed so in the source.

Biological target: D(2) dopamine receptor (Homo sapiens) (UniProt P14416)
Experiment: HTS Assay for Allosteric Antagonists of the Human D2 Dopamine Receptor: Primary Screen for Antagonists; also: 0% is about no effect
Details: HEK293 TREx D2 cells, calcium flux, dopamine EC80; at 10 µM; stronger effect = higher value
Method in brief: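 Overnight-induced (tetracycline, 30 C) HEK293 T-REx cells carrying force-coupled D2 receive a no-wash calcium dye, then compound, then EC80 dopamine at 180 s; signals are read kinetically throughout.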

Chain of UniProt P14416 (P14416 whole entry, looked up): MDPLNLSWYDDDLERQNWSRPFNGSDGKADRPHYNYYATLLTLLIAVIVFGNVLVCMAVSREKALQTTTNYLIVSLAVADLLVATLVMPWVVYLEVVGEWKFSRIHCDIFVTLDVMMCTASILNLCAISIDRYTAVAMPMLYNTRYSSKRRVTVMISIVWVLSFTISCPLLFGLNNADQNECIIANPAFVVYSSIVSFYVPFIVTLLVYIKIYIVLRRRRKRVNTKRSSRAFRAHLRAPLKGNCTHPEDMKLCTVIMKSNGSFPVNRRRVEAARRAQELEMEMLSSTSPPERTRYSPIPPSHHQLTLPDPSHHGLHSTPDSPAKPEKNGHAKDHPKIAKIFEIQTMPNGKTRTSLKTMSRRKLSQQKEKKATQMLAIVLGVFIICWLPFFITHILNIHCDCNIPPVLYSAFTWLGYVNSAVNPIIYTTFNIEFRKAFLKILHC

Structure (SMILES) | inhibition
CCCN1CCN(CCCNC(=O)c2cc3c(=O)[nH]c4ccccc4c3s2)CC1 | -13.9%
CCc1ccc(NC(=O)C2CCN(c3ccc(Sc4ccc(C)cc4)nn3)CC2)cc1 | 14.4%
CC(C)C(=O)NCCSc1c[nH]c2ccccc12 | active: 31.1%
CCc1ccc(C2=CC(c3cccc(OC)c3OC)n3c(nc4ccccc43)N2)cc1 (configuration not stated) | -17.6%
COc1ccc(CCNC(=O)Cn2c(=O)cc(C(F)(F)F)c3c(C)nn(C)c32)c(OC)c1 | 7.21%
CCOc1cc(CNC(=O)c2cc(-c3ccc(Cl)s3)nc3ccccc23)ccc1OC | 24.3%
CC(=O)Nc1ccc(OCC(O)CN2CCN(c3cccc(Cl)c3)CC2)cc1 (configuration not stated) | active: 83%
Cc1ccc(N2CCN(S(=O)(=O)c3nnc(NC(=O)c4cccc(F)c4)s3)CC2)cc1 | -10.4%
NC(=O)C(c1ccccc1)C1CCCCC1 (configuration not stated) | active: 52.4%
COCCCNc1oc(-c2ccc(COc3ccccc3C)o2)nc1C#N | 0.234%
COc1cc(OC)c(NC(=O)Cn2c(=O)nc(-c3ccccc3)c3ccccc32)cc1Cl | -11.5%
CC1=C(C(=O)Nc2cccc(F)c2)C2(CCCCCC2)OC1=O | 6.07%
COc1cccc(Cn2c(=O)n(-c3cc(C)cc(C)c3)c(=O)c3oc4ccccc4c32)c1 | -3.25%
Cc1ccc2c(=O)c(C(=O)c3cccc(Cl)c3)cn(CC(=O)NCc3ccccc3)c2n1 | -25.8%
COc1cccc(OCCn2c(-c3ccc(Cl)cc3)nc3ccccc3c2=O)c1 | 18.1%
CCC(CC)C(=O)Nc1cccc(-c2cn3cccnc3n2)c1 | -6.13%
Cc1c(Cl)cccc1-c1ccc(C(=O)Nc2ccc3oc(-c4cccnc4)nc3c2)o1 | -9.98%
O=C(CCSCCc1ccccn1)Nc1ccccc1C(F)(F)F | -7.08%
CCc1ccccc1NC(=O)Cn1cc(C(=O)c2ccncc2)c(=O)c2cc(C)ccc21 | -5.34%
COc1ccc(CCNC(=O)c2cc(-c3ccc(C)cc3)nc3n[nH]c(-c4ccc(F)cc4)c23)cc1OC | -2.2%
Cc1ccc(-n2ncc3c(NCCc4ccccc4)ncnc32)cc1Cl | -4.74%
O=C(COCc1cc(-c2ccc(F)cc2)on1)Nc1cc(Cl)cc(Cl)c1 | -25.1%
O=C(N/N=C\c1cn[nH]c1-c1ccccc1)c1ccc([N+](=O)[O-])cc1 | active: 57.8%
Cc1ccc(N2CC(C(=O)NCCS(=O)(=O)N3CCN(c4ccc(F)cc4)CC3)CC2=O)cc1 (configuration not stated) | -8.85%
O=C(CCSCc1cccc(F)c1)NCCc1ccccc1 | -21.9%

Structure (SMILES) | inhibition
CCN(CC)S(=O)(=O)c1ccc2c(c1)N(CC(=O)Nc1cccc(C(C)=O)c1)C(=O)CO2 | 2.47%
Cc1csc(SCC(=O)Nc2ccc(C)c(F)c2)n1 | active: 36.8%
O=C(Nc1ccc(Br)cc1)Nc1nc2c(s1)CCCCCC2 | 3.02%
O=C(COCc1cc(-c2ccc3c(c2)OCO3)on1)Nc1cccc(O)c1 | -7.43%
CCC(=O)N1c2ccccc2CC1C(=O)NCCCN1CCN(c2ccc(F)cc2)CC1 (configuration not stated) | -12.1%
Cc1cccc(C(=O)n2nc(-c3ccco3)nc2NCc2ccccc2)c1 | 6.05%
COc1ccc(NC(=O)C(=O)Nc2ccc3nc4n(c(=O)c3c2)CCCCC4)c(OC)c1 | 1.04%
CC(=O)c1c(-c2ccccc2)c2cc(Cl)ccc2[nH]c1=O | active: 74.9%
COc1ccc(Cl)cc1S(=O)(=O)Nc1ccc2c(c1)n(C)c(=O)n2C | -13.6%
COc1ccc(OC)c(NC(=O)C(Cc2ccccc2)NS(=O)(=O)c2ccc3c(c2)CCC(=O)N3)c1 (configuration not stated) | -13.3%
CCn1cc2nc(SCc3c(F)cccc3Cl)n(CCc3ccccc3)c(=O)c2n1 | 2.04%
Cc1ccc(C)c(Cn2c(=O)n(CCc3ccccc3)c(=O)c3c(C)c(C)sc32)c1 | -1.4%
COc1ccc(Cn2nc3n(c2=O)-c2ccccc2OC3)cc1 | 6.79%
Cc1ccc(-c2nnc(Nc3cccc(Br)c3)c3ccccc23)cc1S(=O)(=O)N1CCN(C)CC1 | 7%
COc1ccc(CCNC(=O)c2noc3c2CCCC3)cc1OC | active: 42.2%
O=C(Nc1ccccc1)c1cc2c(-c3ccccc3)nn(-c3ccccc3)c2s1 | 18.3%
O=C(CSc1c2c(nc3ccc(Cl)cc13)CCCC2)N1CCN(c2ccc(Cl)cc2)CC1 | 9.7%
CCOc1ccc(OC(=O)c2sc3ncn(Cc4cccc(F)c4)c(=O)c3c2C)cc1 | 12.3%
CCOC(=O)N1CCC(N2CCN(c3ccccc3)CC2)CC1 | active: 73.7%
CSc1ccc(CCNS(=O)(=O)c2cc(-c3cc(C)no3)ccc2C)cc1 | 2.87%
C#CCOc1c(Br)cc(C2C(C(=O)OC)=C(C)NC3=C2C(=O)c2ccccc23)cc1OCC (configuration not stated) | 27.3%
CCOC(=O)c1cnc2cc(Cl)c(OC)cc2c1Nc1ccc(Br)cc1C | 8.85%
COc1ccccc1N1CCN(C(=O)C2CCN(S(=O)(=O)c3cccs3)CC2)CC1 | -24.3%
COc1ccccc1C(=O)NC1(C(F)(F)F)C(=O)NC(C)=C1C#N (configuration not stated) | 12.1%
COc1cc(OC)c(NC(=O)c2nn(C)c3c2COc2ccccc2-3)cc1Cl | -2.34%

Structure (SMILES) | inhibition
Cc1ccccc1NC(=O)Cn1nnc(C(=O)NCc2ccco2)c1N | 6%
COc1ccccc1NC(=O)CSc1ncc(CO)n1Cc1ccc(F)cc1 | 12.6%
COc1ccc2ncc3c(-c4ccccc4)nn(-c4ccc(C)c(C)c4)c3c2c1 | 11.1%
CC(C)c1cnc2c(c1SCC(=O)c1ccc(Cl)cc1)c(=O)n(C)c(=O)n2C | -2.38%
Cc1cccc(C)c1OCc1n[nH]c(=S)n1N | active: 43.2%
COc1cccc(CN2CCN(C(=O)c3cccs3)CC2)c1OC | active: 70.9%
Cc1cccc(N2CCN(C(=O)C3CCN(S(=O)(=O)Cc4ccccc4)CC3)CC2)c1C | 15.4%
Cc1ccccc1NC(=O)Cn1c(=O)n(Cc2ccco2)c(=O)c2ccc(C(=O)NC3CCCC3)cc21 | -9.17%
CC(C)(C)OC(=O)N1CCC(c2c(C(=O)NCCc3ccsc3)cnn2-c2ccc(F)cc2F)CC1 | -0.427%
COc1ccc(Cl)cc1NC(=O)c1c(NCc2cccnc2)sc2c1CCCC2 | 0.388%
CCOC(=O)c1c(Nc2ccc(OCC)cc2)nnc(-c2ccccc2)c1-c1ccccc1 | -13.4%
Cc1ccccc1NC(=O)CSCn1nnc2c(=O)[nH]c(Cc3ccc(F)cc3)nc21 | -5.89%
FC(F)(F)c1cccc(OCCN2CCN(Cc3ccccc3)CC2)c1 | active: 82%
CCCN1Cc2cccc(C(=O)Nc3ccccc3F)c2C1=O | 14.5%
CCCC(=O)Nc1ccc2nc(SCCOc3ccccc3)sc2c1 | 11.8%
COc1ccc(C2=Nc3ccc(C)cc3C(c3ccccc3)N2CC(=O)NN)cc1 (configuration not stated) | active: 108%
Cc1cccc(NC(=O)C(=O)NCC(c2cccnc2)N2CCN(Cc3ccccc3)CC2)c1 (configuration not stated) | 19.1%
Cn1c(C(=O)NCCc2ccccc2)cc2cc(S(=O)(=O)N3CCCCC3)ccc21 | 2.25%
CCOc1ccc(NCc2cccn2-c2nnc(N3CCC(C(=O)NCCc4ccc(OCC)c(OCC)c4)CC3)s2)cc1 | -1.89%
CC1CN(C(=O)Nc2ccc(C(=O)NCCc3ccc(Cl)cc3)cc2)c2ccccc2S1 (configuration not stated) | 5.54%
COCCn1c(C)cc(O)c(C(c2ccc(OC)cc2)N2CCCCC2)c1=O (configuration not stated) | -3.2%
Cc1ccc(NC(=O)CSCC#N)cc1 | active: 87.4%
COc1ccc(S(=O)(=O)N2CCN(C(=O)c3cc(-c4ccc(Br)cc4)n[nH]3)CC2)cc1OC | -12.5%
CCOc1ccccc1NC(=O)CSc1nnc2c(CC)c(C)nc(N)n12 | active: 35.2%
Cc1cccc(C(=O)NCc2nnc(SCC(=O)Nc3ccccc3F)n2-c2ccccc2)c1 | -10.5%

Structure (SMILES) | inhibition
CCc1cccc(-n2nnc(-c3nc(-c4ccc5c(c4)OCO5)no3)c2C)c1 | 2.41%
CCOC(=O)c1cc(-c2ccc(OC)cc2)n(CCC(=O)NC2CCC(C)CC2)c1C (configuration not stated) | 13.5%
CCOc1ccc(-c2n[nH]c3c2C(c2cccs2)N(c2ccc(Br)cc2)C3=O)cc1 (configuration not stated) | 4.18%
COc1ccc(NC(=O)CSc2nc(-c3ccccc3)c3ccccc3n2)cc1 | -9.11%
COc1ccc(N2CCN(C(=O)Nc3ccc(Cl)cc3)CC2)cc1 | 8.71%
CCN1CCN(C(c2cccc(OC)c2)c2c(O)cc(C)n(Cc3ccco3)c2=O)CC1 (configuration not stated) | 11.7%
S=C(Nc1ccc(Br)cc1Cl)NC1CCN(Cc2ccccc2)CC1 | active: 70.2%
O=C(Nc1ccccc1C(F)(F)F)N1Cc2ccccc2Oc2ncccc21 | -3.98%
COc1cccc(C2C=C(c3ccc(C)cc3)Nc3c(C(=O)Nc4ccc(F)cc4)cnn32)c1OC (configuration not stated) | 14.5%
CCOc1ccc(NC(=O)CSc2oc(-c3ccco3)nc2S(=O)(=O)c2ccc(Cl)cc2)cc1 | 16.2%
CC(CCc1ccccc1)NC(=O)Cn1ncc2c3ccccc3n(Cc3cccc(Cl)c3)c2c1=O (configuration not stated) | 13.9%
CC(NC(=O)c1ccc(Cn2c(SCc3ccccc3)nc3cccnc32)cc1)c1ccccc1 (configuration not stated) | 0.473%
CCOc1ccc(N(CC(=O)NCc2ccc(C)cc2)S(=O)(=O)c2c(C)[nH]c(=O)[nH]c2=O)cc1 | 18.1%
COc1ccccc1Nc1nn2c(=O)c3ccc(C(=O)NC4CCCCC4)cc3nc2s1 | -3.79%
Cc1cc(Cl)ccc1OCC(=O)NNC(=O)CCOc1ccccc1 | active: 31.1%
CCOC(=O)N1CCc2c(sc(NCc3ccc(N(C)C)cc3)c2C(=O)Nc2ccccc2OCC)C1 | -6.51%
Brc1ccc(-c2csc(-c3nc(-c4ccc(Br)s4)cs3)n2)cc1 | 5.84%
CCCS(=O)(=O)NCCc1sc2nc(-c3ccc(Cl)cc3)nn2c1C | -2.19%
Cc1cc(C(=O)Nc2ccc(Cl)cc2)c2c(C)nn(-c3ccccc3)c2n1 | 16.3%
CCOC(=O)c1c(NC(=O)c2cc(=O)c3c(C)cc(C)cc3o2)sc(C)c1C | -1.36%
COc1cccc(NC(=O)CN2C(=O)COc3ccc(S(=O)(=O)N4CCOCC4)cc32)c1 | 6.68%
Cc1[nH]c2ccccc2c1C1(O)C(=O)N(Cc2ccccc2)c2ccc(Br)cc21 (configuration not stated) | -27.5%
